The full ranking holds about 13,000 compounds; the median of “IFI” is about 4, and the highest 2% start at about 17. The list shows a part of the results.

This test can be described thus: GSK_TCMDC: Inhibition Frequency Index (IFI). The number of non-kinase HTS assays where a compound showed > 50 % inhibition, expressed as a percentage of the number of such assays in which the compound was tested (-0 is zero). Type of test: functional.
In turn, `COc1ccc2nccc([C@@H](O)CN3CCC(NCc4cc5c(Cl)cccc5[nH]4)CC3)c2c1` gave an IFI of 7.41%.

Regarding `N#Cc1ccc(N2CCN(Cc3cccc(-c4ccc(-c5nc6cc(C(F)(F)F)ccc6[nH]5)cc4)c3)CC2)nc1`, the IFI stood at 16.2%.

The compound `Cc1cc(Cl)c(Cl)cc1NC(=O)Nc1cccc(C(F)(F)F)c1` gave an IFI of 6.52%.

`O=C(Nc1ccc2c(c1)CCN(C1CCC1)CC2)c1ccc(-n2ccnc2)cn1` yielded an IFI of 1.46%.

In turn, `COc1ccc(CNC2CCN(C)CC2)cc1-c1cccc(S(=O)(=O)NCc2ccccc2)c1` registered an IFI of 11%.

`COc1ccc(S(=O)(=O)N(c2cc(Br)cc3c2OCC3)S(=O)(=O)c2ccc(OC)c(N3CCN(C)CC3)c2)cc1N1CCN(C)CC1` registered an IFI of 6.52%.

`CCS(=O)(=O)Nc1ccc2[nH]cc(C3CCN(CCC4CCN(C(=O)/C=C/c5ccc(Cl)c(Cl)c5)CC4)CC3)c2c1`: the IFI worked out at 7.97%.

Consider `OC(CNCc1ccccc1Oc1ccccc1)c1cc(Br)cs1` (centres undefined), for which the IFI was 5.79%.

The compound `COc1ccccc1CN1CCC(NC(=O)c2ccc(-c3ccc(N(C)C)cc3)s2)CC1` gave an IFI of 14%.

`Oc1ccc(Nc2nc(NCc3ccco3)c3ccccc3n2)cc1` showed an IFI of 8.7%.

Regarding `O=C(Nc1cc(Cl)ccc1O)c1cc(-c2ccccc2O)no1`, the IFI came out at 10.3%.

As for `CC(=O)Nc1cccc(CNCc2ccc(-c3cnc(N4CCCC(c5ccccc5)C4)nc3)cc2)c1` (centres undefined), the IFI was 5.41%.

Consider `CN1CCC(NCc2cccc(-c3ccc(S(=O)(=O)NCc4ccccc4)cc3)c2)CC1`, for which the IFI stood at 8.7%.

With `Cc1cc(=O)c(-c2ccc(OCCSc3ccc(C(F)(F)F)cn3)cc2)c(C)[nH]1`, the IFI came out at 4.55%.

In the case of `COc1cccc(C(=O)NC(c2ccccc2OC)c2cc(Cl)c3cccnc3c2O)c1` (centres undefined), the IFI was 3.45%.

With `OCC1CCN(Cc2cccc(-c3ccc(-c4nc5cc(F)ccc5[nH]4)cc3)c2)CC1`, the IFI was -0%.

The compound `COc1cc2nc(N3CCC(CNC(=O)c4ccc(-c5ccc(C(=O)N(C)C)cc5OCCN(C)C)cc4)CC3)nc(N)c2cc1OC` showed an IFI of -0%.

In the case of `Cc1cccc2nc(-c3ccc(-c4cccc(NC(=O)c5cncn5C)c4)s3)[nH]c12`, the IFI was 3.6%.

The compound `CC(C)c1cccc(OCC2CCN(c3ccc(C(=O)Nc4ccccc4)cn3)CC2)c1` showed an IFI of 1.96%.

The compound `Cc1cc(-c2ccc(CNCc3ccsc3)cc2)ccc1S(=O)(=O)NCCN1CCCC1` came in with an IFI of 15.4%.

Take `CS(=O)(=O)CCNc1cc(N2CCc3ncnc(Nc4ccc(OCc5cccc(F)c5)c(Cl)c4)c3C2)ncn1`: the IFI amounted to 4.44%.

The compound `COc1ccc2[nH]c(C)cc(=NN=Cc3ccc(Cl)cc3)c2c1` yielded an IFI of 6.11%.

As to `COc1ccc2nccc([C@@H](O)CN3CCC(NC(=O)c4cccc(C(=O)c5ccccc5)c4)CC3)c2c1`, the IFI is 3.6%.

In the case of `CC(C)C(=O)NC(NC(=S)Nc1ccc(Br)cc1)C(Cl)(Cl)Cl` (centres undefined), the IFI worked out at 1.56%.

`Cc1cc2nc(-c3ccc(C(=O)NCCCc4ccccc4)cc3)[nH]c2cc1C` came in with an IFI of 1.52%.

`Cn1nccc1C(=O)NCCNCc1ccc(-c2ccc(-c3nc4cc(F)ccc4[nH]3)cc2)cc1`: the IFI worked out at 8.91%.

`CN1CCN(c2ccnc3ccc(NC(=O)Nc4ccc(-c5ccccc5)cc4)cc23)CC1`: the IFI is -0%.

The compound `Cc1cc(NCCCCCCCCNc2cc(C)nc3ccccc23)c2ccccc2n1` yielded an IFI of 3.05%.

Consider `Cc1ccc2c(OCCN3CCC(Cc4ccc5c(c4)NC(=O)CO5)CC3)cc(F)cc2n1`, for which the IFI is 2.86%.

Compound `CCCCCCNC(=N)c1ccc2[nH]c(-c3ccc(O)cc3)nc2c1` came in with an IFI of 0.74%.

In turn, `COc1ccccc1CN1CCC(CNC(=O)c2cc(-c3cccc(C(F)(F)F)c3)cs2)C1` (centres undefined) had an IFI of 12.5%.

As to `O=C1Nc2cccc3c2C1(CCCCCN1CCC(c2c[nH]c4ccncc24)CC1)CCC3` (centres undefined), the IFI was determined as 3.6%.

`COc1cccc(-c2ccc(C(=O)NC3CCN(Cc4ccc(N(C)C)cc4)CC3)s2)c1` registered an IFI of 7.02%.

`CCOC(=O)N1CCN(CCCNc2c3ccc(Cl)cc3nc3ccc(OC)cc23)CC1`: the IFI came out at 5.67%.

The compound `O=C(NCCCN1CCC(Cc2ccccc2)CC1)c1cc2c(Cl)nc3ccccc3c2s1` displayed an IFI of 10.5%.

Compound `COc1ccc(CN2CCC(C(=O)Nc3cccc(-c4cccc(Cl)c4)c3)CC2)cc1O` showed an IFI of 13.9%.

Compound `CN1CCCC1CCCOC(=O)c1ccc(N)cc1` (centres undefined) showed an IFI of -0%.

In turn, `CN(c1ccc2c(c1)nc(NC(=O)C1(c3cc(F)ccc3F)CC1)n2C)c1ccnc(Nc2cccc(CS(C)(=O)=O)c2)n1` showed an IFI of 3.85%.

`Cc1ccc2c(c1)c(C1CCN(C(=O)c3ccc([N+](=O)[O-])o3)CC1)cn2C` came in with an IFI of 4.35%.

For the compound `Cc1cc(NC2CCN(CC3CCCCC3)CC2)nc(Nc2ccccc2Cl)n1`, the IFI was determined as 3.57%.

The compound `CCN(CC)CCCSc1ccc(-c2ccc(SCCCN(CC)CC)cc2)cc1` returned an IFI of 6.47%.

`COc1ccc(OC)c(-c2ccc(O)c(CNCC(C)c3ccccc3)c2)c1` (centres undefined) yielded an IFI of 8.57%.

In turn, `CN(C)CCNc1cc(-c2ccc3ccccc3c2)nc2ccccc12` had an IFI of 3.91%.

For `COc1ccc2nccc([C@@H](O)CN3CCC(NCc4nc5c(F)cccc5[nH]4)CC3)c2c1`, the IFI is 1.38%.

With `O=C(/C=C/c1cccc(C(F)(F)F)c1)NCCCCCN1CCC(c2c[nH]c3ccccc23)CC1`, the IFI turned out to be 9.09%.

Compound `COc1ccc(OC)c(CC2c3ccc(Br)c(O)c3CCN2C)c1` (centres undefined) registered an IFI of 2.17%.

Take `COc1cccc(NC(=O)Nc2ccc(Nc3nc(C)cc(N(C)C)n3)cc2)c1`: the IFI came out at 12%.

As to `NC(Cc1cccc(I)c1)C(=O)NCC1CCCO1` (centres undefined), the IFI was -0%.

`O=C(Nc1cc(C(F)(F)F)cc(C(F)(F)F)c1)N1CCC(CCN2CCC(c3c[nH]c4ccccc34)CC2)CC1` registered an IFI of 3.6%.

For `O=C(NCC1CCC1)c1cnc(Nc2cccc(Cl)c2)nc1N1CCC1`, the IFI was -0%.

As for `CC(=O)Nc1ccc(S(=O)(=O)Nc2c(C)cc(Cc3cnc(N)nc3N)cc2C)cc1`, the IFI worked out at 1.46%.

`COc1cc(-c2nc(-c3ccccc3)c(-c3ccccc3)[nH]2)ccc1OCCN(C)C` returned an IFI of 3.65%.

Compound `COc1ccccc1CCNc1nc(C)cc(N[C@@H](CC(C)C)C(=O)NCc2cccs2)n1` returned an IFI of 10.3%.

For `NCCNS(=O)(=O)c1ccc(-c2ccnc3[nH]c(-c4ccncc4)cc23)cc1`, the IFI amounted to 3.13%.

`Nc1cc(-c2ccc(Br)cc2O)nc2ccccc12` gave an IFI of 8.21%.

`O=C(/C=C/c1ccc(Cl)c(Cl)c1)NCCCCCN1CCCC(CNC(=O)/C=C/c2ccccc2)C1` (centres undefined): the IFI is 8.33%.

Compound `Oc1cccc(Nc2ccnc3cc(-c4ccncc4)ccc23)c1` came in with an IFI of 4.41%.

The compound `COc1ccc(-c2ccc(NC(=O)c3cccc(Cl)c3)cc2)cc1CNC(C)C` displayed an IFI of 3.96%.

The compound `Cn1cncc1CCN(Cc1ccc(-c2ccc(C(F)(F)F)cc2)cc1)C(=O)Cn1c(CCc2cccc(F)c2F)cc(=O)c2cccnc21` registered an IFI of 4.41%.

Source of the values: ChEMBL document CHEMBL1157539, “Thousands of chemical starting points for antimalarial lead identification” (Nature, 2010).
